Source: PMC4336329 (PLoS ONE, 2015)
In all, about 310,000 compounds went through this assay and about 14,000 (4.5%) showed an effect of 50% or more. The effect is printed as a negative number. Some of the results follow.

target: human ether-à-go-go-related gene (hERG) potassium channel (human, UniProt Q12809); assay: primary screen, population patch clamp on CHO cells stably expressing hERG
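Also: peak tail current of the secondary pulse compared with the same well before compound.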

human ether-à-go-go-related gene (hERG) potassium channel, sequence (Q12809 whole entry, looked up): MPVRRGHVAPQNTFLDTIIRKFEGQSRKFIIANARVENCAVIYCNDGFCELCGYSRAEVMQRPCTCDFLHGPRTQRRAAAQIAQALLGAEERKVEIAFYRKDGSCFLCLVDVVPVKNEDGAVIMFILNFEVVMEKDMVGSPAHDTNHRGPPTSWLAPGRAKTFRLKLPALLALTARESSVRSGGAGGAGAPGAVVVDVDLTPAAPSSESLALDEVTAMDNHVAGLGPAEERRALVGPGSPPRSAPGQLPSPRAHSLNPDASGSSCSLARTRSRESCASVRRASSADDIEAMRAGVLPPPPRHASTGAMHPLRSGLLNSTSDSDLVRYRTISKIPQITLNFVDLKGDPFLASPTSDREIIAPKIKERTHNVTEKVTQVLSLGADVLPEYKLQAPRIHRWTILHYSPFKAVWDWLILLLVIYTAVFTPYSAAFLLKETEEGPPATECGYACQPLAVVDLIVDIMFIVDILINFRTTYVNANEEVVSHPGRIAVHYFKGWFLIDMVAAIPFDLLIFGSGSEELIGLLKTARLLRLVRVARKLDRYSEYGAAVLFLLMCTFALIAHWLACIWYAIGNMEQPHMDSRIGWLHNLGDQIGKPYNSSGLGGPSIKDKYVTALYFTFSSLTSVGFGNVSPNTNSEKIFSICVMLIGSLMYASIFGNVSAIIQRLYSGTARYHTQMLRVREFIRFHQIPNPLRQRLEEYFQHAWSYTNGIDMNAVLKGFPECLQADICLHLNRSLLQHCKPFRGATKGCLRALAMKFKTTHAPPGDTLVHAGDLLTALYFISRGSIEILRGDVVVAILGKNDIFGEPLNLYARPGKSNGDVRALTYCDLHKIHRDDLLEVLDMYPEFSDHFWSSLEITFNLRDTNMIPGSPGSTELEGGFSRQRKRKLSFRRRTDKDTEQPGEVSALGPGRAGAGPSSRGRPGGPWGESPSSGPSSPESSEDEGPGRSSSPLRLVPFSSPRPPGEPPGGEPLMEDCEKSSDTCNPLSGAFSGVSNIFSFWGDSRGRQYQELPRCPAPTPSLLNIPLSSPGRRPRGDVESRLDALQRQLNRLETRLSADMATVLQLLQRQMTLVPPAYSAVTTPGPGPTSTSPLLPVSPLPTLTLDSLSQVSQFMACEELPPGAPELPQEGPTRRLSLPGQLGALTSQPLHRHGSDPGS

Row | Compound | hERG current change (%, negative = inhibition) at 10uM [%]
1 | Cc1cccc(C(C)C)c1NC(=O)CN1C(=O)NC2(CCc3ccccc32)C1=O (centres unmarked) | 19.4
2 | Cc1ccc(S(=O)(=O)n2cc(-c3ccccc3)c3ccccc32)cc1 | 16.5
3 | C[C@H](NC(=O)OCc1ccccc1)c1nnc([C@H](C)NC(=O)OCc2ccccc2)o1 | -38.7
4 | CCOc1ccc(CC(=O)NNC(=O)/C=C/C(=O)O)cc1 | 15.9
5 | CC(C)(C)c1ccc(C(=O)NCCCNC(=O)c2cccnc2)cc1 | 11.7
6 | COc1cccc(-c2cc(=O)[nH][nH]2)c1 | 18
7 | C[C@H](CCC(=O)O)[C@H]1CC[C@H]2[C@@H]3CC[C@@H]4C[C@H](O)CC[C@]4(C)[C@H]3CC[C@]12C | 33.5
8 | COc1ccccc1C(CNC(=O)CNC(=O)c1ccc(C)c(C)c1)N1CCCC1 (centres unmarked) | -6.27
9 | CCOC(=O)N1CCC(N(CCN(C)C)C(=S)Nc2cc(C)ccc2C)CC1 | 3.51
10 | Cc1ccc(C)c(NC(=O)COC(=O)c2cc3ccccc3oc2=O)c1 | -7.96
11 | CN(C)CCCN(C(=O)c1cc2ccccc2oc1=O)c1nc2ccc(F)cc2s1.Cl | -68.1
12 | COC(=O)CN(n1cnnc1)S(=O)(=O)c1ccccc1Cl | -15
13 | Cc1cc(OCC(=O)Nc2ccc(S(=O)(=O)N3CCN(C)CC3)cc2)cc(C)c1Cl | -10.2
14 | O=C(CSc1nc(=O)n(CCCN2CCOCC2)c2c1CCCC2)Nc1ccc(F)c(F)c1 | -58
15 | C#CCOCCOCCOCCNc1nc(N2CCN(C(=O)CCCCCCCCCCNC(=O)Cn3cc(CCCCCN)nn3)CC2)nc(N2CCN(C(=O)CCCCCCCCCCNC(=O)[C@@H](CCC(=O)O)n3cc(CCCCCN)nn3)CC2)n1 | -5.58
16 | O=C(O)C12CC3CC(C1)CC(n1ncc(NCc4ccccc4)c(Cl)c1=O)(C3)C2 | 9
17 | Cc1ccc(S(=O)(=O)c2nnn(-c3cccc(F)c3)c2N)cc1 | -4.77
18 | C=CCn1c(SCC(=O)NCCOC)nc2scc(-c3ccco3)c2c1=O | -46.8
19 | Oc1ccc(-c2[nH]nc(-c3ccccc3)c2-c2nc3ccccc3[nH]2)cc1 | -12.7
20 | COc1ccc(C(C(=O)NC2CCCC2)N(C(=O)c2snc(-c3ccc(F)cc3)c2N)c2cccc(F)c2)cc1 (centres unmarked) | 2.28
21 | Cc1cc(C)n(C(=O)c2cc3ccccc3c(=O)o2)n1 | -5.29
22 | COc1cc(/C=C(/C#N)c2ccc(F)cc2)ccc1OCc1ccc(C(=O)O)o1 | 11.8

Row | Compound | hERG current change (%, negative = inhibition) at 10uM [%]
23 | O=C(O)c1ncsc1-c1ccccc1 | 14.9
24 | CCn1ccc(C(=O)NC2C(=O)N3C(C(=O)O)=C(C)CSC23)n1 (centres unmarked) | 7.31
25 | Cc1ccc(NC(=O)c2noc3c2CCCCC3)cc1C | -0.563
26 | CCOc1ccc(/C(O)=C2/C(=O)C(=O)N(CCCN3CCOCC3)C2c2ccc(C)cc2)cc1C (centres unmarked) | 23.8
27 | COC(=O)c1nc(N)sc1-c1ccccc1 | 5.87
28 | CCOc1cc(C)c(Cl)cc1S(=O)(=O)N(CC)CC | -4.49
29 | CCCNC(=O)Cn1c(=O)/c(=C\c2ccc(-c3cccc([N+](=O)[O-])c3)o2)s/c1=C\C(=O)C(C)(C)C | 11.4
30 | CN(C)c1ccc(C=Nc2ccc(N(C)C)cc2)cc1 | -13.5
31 | O=C(CN(Cc1ccccc1F)S(=O)(=O)c1ccc(Cl)cc1)NCCCO | -18.3
32 | Cc1c(OC(C)C(=O)NCCN2CCOCC2)ccc2c3c(c(=O)oc12)CCCC3 (centres unmarked) | 5.87
33 | COc1ccc(Oc2cccc(Cl)c2CNC(=O)CCC(=O)O)cc1 | -0.617
34 | CCOc1cc(-c2conc2N)cc(OCC)c1OCC | -16.5
35 | Cc1oc2c(C)c3oc(=O)c(CCC(=O)NCCCn4ccnc4)c(C)c3cc2c1C | -35.9
36 | CCOCCCNC(=O)/C(C#N)=C/c1ccc(Cl)c([N+](=O)[O-])c1 | -5.95
37 | CCOC(=O)/C=C1\Nc2ccccc2SC1=O | -45.3
38 | Cc1ccc(C(=O)N/C(=C/c2ccc(N(C)C)cc2)C(=O)NCC2CCCO2)cc1 (centres unmarked) | 9.55
39 | Cc1ccc2c(cnn2C(=O)CCC(=O)N2CCCCC2)c1 | -9
40 | CCCc1cc(=O)[nH]c(SCCOc2ccc(OCC)cc2)n1 | 4.7
41 | CCCOc1cc(N(CC)CC)ccc1/C=C(/C#N)c1nc2ccc(C)cc2[nH]1 | 3.81
42 | COc1ccc(S(=O)(=O)N2CCC(C(=O)NCC(c3cccs3)N(C)C)CC2)cc1 (centres unmarked) | -15.8
43 | Cc1ccc(C(=O)NC(N(C)C)C(Cl)(Cl)Cl)cc1 (centres unmarked) | -0.546
44 | CCCC(=O)NCC(c1cccs1)S(=O)(=O)c1ccc(Cl)cc1 (centres unmarked) | -3

Row | Compound | hERG current change (%, negative = inhibition) at 10uM [%]
45 | Cc1ccc(N2C(=O)CSCC2=O)cc1 | -6.43
46 | C=CCNC(=S)N/N=C/c1cn(C)c2ccccc12 | 3.16
47 | CCOC(=O)C1CCN(C(=O)CSc2c3c(nc4ccccc24)CCC3)CC1 | -21.3
48 | Nc1ccc(C(=O)OCC(=O)NC2CC2)cc1[N+](=O)[O-] | 3.72
49 | CN(C)C(=O)c1ccc(NC(=O)c2cccc(S(=O)(=O)N3CCCc4ccccc43)c2)cc1 | -8.06
50 | Cc1cc(NC(=O)c2ccc(COc3ccc(Cl)c(C)c3)o2)no1 | 4.29
51 | CCc1ccc(CNC(=O)c2ccc3nc(C4CCCCC4)oc3c2)nc1 | -15.8
52 | Cn1c(CO)cnc1S(=O)(=O)Cc1c(Cl)cccc1Cl | 7.65
53 | O=C(Nc1ccc(Cl)cc1)N(Cc1cccs1)Cc1cccs1 | 0.899
54 | CCc1nnc(NC(=O)c2cccc(S(=O)(=O)N(C)c3ccccc3)c2)s1 | 17.9
55 | CCOc1ccc(/C=N/NC(=O)c2cc3c(OC)cc(OC)cc3[nH]2)cc1OC | 16
56 | Cc1c(Cl)cccc1NC(=O)Cn1cnc(S(=O)(=O)N2CCCC2)c1 | 20.3
57 | Cc1cc(C)c(NC(=O)C2=COCCO2)c(C)c1 | -1.08
58 | COc1ccc(C(=O)Oc2cc(N)n(S(=O)(=O)c3ccccc3)n2)cc1 | -7.73
59 | COc1ccc(C)cc1S(=O)(=O)Nc1ccc2c(c1)OCO2 | 17.8
60 | COc1cc(C#Cc2c(C=O)n(C)c3ccccc23)cc(OC)c1 | 22.9
61 | Cc1cc(C)n(CC(=O)N/N=C/c2cccs2)n1 | -2.48
62 | CCN(CC)S(=O)(=O)c1cc(NC(=O)CSc2nnc(N)s2)ccc1C | 0.0632
63 | O=C(CC(Nc1ccc(Cl)cc1Cl)C(=O)O)c1ccccc1 (centres unmarked) | 16.3
64 | CCCCC1=CC2=C(c3ccco3)C(=O)C(C)(OC(=O)c3ccc(OC)cc3)C(=O)C2=CN1CCCOC(C)C (centres unmarked) | 3.54
65 | COc1ccc(S(=O)(=O)N2CCC(C(=O)NC(C)CCc3ccccc3)CC2)cc1 (centres unmarked) | -4.03
66 | Cc1ccc(N2CC(C(=O)Nc3ccccc3C(=O)NC3CCCCC3)CC2=O)cc1C (centres unmarked) | -17.9

Row | Compound | hERG current change (%, negative = inhibition) at 10uM [%]
67 | Cl.OC(CN1CCCCC1)Cn1c(C(F)(F)F)nc2ccccc21 (centres unmarked) | 4.06
68 | CC(C)OC(=O)CSc1nc(N2CCOCC2)c2c(c1C#N)CC(C)(C)OC2 | -29.8
69 | CCOc1ccc(S(=O)(=O)N2CCOCC2)cc1NC(=O)CN1C(=O)NC(C)(c2ccccc2)C1=O (centres unmarked) | -52.6
70 | CN1CCN(C(=O)C2=C[C@@H](c3ccccc3)C[C@@H](OCCCCO)O2)CC1 | -6.11
71 | CC1CCCC(NC(=O)C2CCN(S(=O)(=O)N3CCOCC3)CC2)C1C (centres unmarked) | -10.8
72 | Cc1cc(C)cc(NS(=O)(=O)c2c(C(=O)N3CCCCCC3)c(C)n(C)c2C)c1 | 4.69
73 | COc1ccc(CN2CCN(CCCc3ccccc3)C(CCO)C2)c(OC)c1 (centres unmarked) | -72.9
74 | Cc1ccc(SCC(=O)OCC(=O)N(C)CC(=O)Nc2ccc(F)cc2)cc1 | -23.4
75 | O=C(CCCOc1ccc(Cl)cc1Cl)NCc1ccccn1 | -18.4
76 | CN(CC(=O)NCC1CCCO1)S(=O)(=O)c1ccc(Br)cc1 (centres unmarked) | -22.6
77 | Cn1c(CCN2CCCCC2)nc2cc(NC(=O)C3CCCCC3)ccc21 | -60.2
78 | COc1cc(OC)c(C2SCCCS2)cc1OC | -1.46
79 | COc1ccc(C(=O)NCc2ccccc2OC)c(OC)c1 | -11.6
80 | O=C(NNC(=S)Nc1ccccc1C(F)(F)F)c1ccc(Br)o1 | 12.1
81 | Cc1cc(=O)c(C(=O)Nc2cccc(C(=O)NC3CC3)c2)nn1-c1ccccc1Cl | -8.37
82 | C=CCNC(=O)Nc1cc(Cl)ccc1OC | 7.65
83 | CCN(Cc1nc(-c2ccc(Cl)cc2)no1)CC1CCCO1 (centres unmarked) | -62.9
84 | COC(=O)c1sc2nc3c(cc2c1N)CCCC3 | 22.5
85 | Cc1nc2ccccn2c1C(=O)NN=C1CCN(C)CC1 | 15.1
86 | COc1ccc(CN2C(=O)c3cccnc3C2=O)cc1S(=O)(=O)N1CCOc2ccc(C)cc21 | -11.6
